The whole screen tested about 310,000 compounds, of which about 14,000 (4.5%) showed an effect of 50% or more. The effect is printed as a negative number. The list shows a part of the results. Where a SMILES comes first, the peptide text is derived from it. The star is where a group is joined. Cbz = O=C(OCc1ccccc1)*; OtBu = CC(C)(C)O*; tBu = CC(C)(C)*
Each compound was assayed against human ether-à-go-go-related gene (hERG) potassium channel (human, UniProt Q12809) (assay: primary screen, population patch clamp on CHO cells stably expressing hERG).
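Further: peak tail current of the secondary pulse compared with the same well before compound.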

Chain of human ether-à-go-go-related gene (hERG) potassium channel (Q12809 whole entry, looked up): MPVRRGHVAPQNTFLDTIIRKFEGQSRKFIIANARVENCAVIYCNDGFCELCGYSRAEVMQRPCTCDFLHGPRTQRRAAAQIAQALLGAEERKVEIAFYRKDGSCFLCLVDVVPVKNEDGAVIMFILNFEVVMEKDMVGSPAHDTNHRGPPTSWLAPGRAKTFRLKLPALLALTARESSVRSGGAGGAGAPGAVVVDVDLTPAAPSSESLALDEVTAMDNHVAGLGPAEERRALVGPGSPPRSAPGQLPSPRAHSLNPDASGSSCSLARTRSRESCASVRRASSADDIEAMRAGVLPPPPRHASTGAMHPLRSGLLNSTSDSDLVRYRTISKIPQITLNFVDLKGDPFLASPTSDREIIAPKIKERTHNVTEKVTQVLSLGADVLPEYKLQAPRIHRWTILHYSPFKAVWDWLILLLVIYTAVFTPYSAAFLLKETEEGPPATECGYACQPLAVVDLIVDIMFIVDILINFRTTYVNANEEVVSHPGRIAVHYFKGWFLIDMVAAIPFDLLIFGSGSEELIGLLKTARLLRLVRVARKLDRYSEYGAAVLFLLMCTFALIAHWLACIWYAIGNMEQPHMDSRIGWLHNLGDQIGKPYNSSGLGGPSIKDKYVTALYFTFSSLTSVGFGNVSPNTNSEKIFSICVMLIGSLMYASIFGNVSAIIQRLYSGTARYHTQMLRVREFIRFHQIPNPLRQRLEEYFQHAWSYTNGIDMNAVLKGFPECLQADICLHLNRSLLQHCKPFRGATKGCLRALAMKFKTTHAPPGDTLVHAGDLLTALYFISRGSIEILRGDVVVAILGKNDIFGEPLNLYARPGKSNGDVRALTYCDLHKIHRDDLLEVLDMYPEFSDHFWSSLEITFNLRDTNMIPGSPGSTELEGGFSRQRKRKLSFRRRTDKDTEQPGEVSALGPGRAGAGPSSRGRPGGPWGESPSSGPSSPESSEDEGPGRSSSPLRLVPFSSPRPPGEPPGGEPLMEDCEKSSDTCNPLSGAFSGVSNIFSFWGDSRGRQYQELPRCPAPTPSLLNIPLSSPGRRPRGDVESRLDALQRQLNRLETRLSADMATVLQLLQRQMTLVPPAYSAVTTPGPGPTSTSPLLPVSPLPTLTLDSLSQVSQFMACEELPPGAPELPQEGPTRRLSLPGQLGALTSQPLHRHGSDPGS

| Structure (SMILES) | hERG current change (%, negative = inhibition) at 10uM |
| --- | --- |
| COc1cc(/C=C2/C(=N)N3C=CSC3=NC2=O)ccc1OCCOc1ccc(NC(C)=O)cc1 | 15.1% |
| CC(C)Oc1ccccc1/C=N/Nc1ccccc1[N+](=O)[O-] | 2.49% |
| Cc1nc2c3ccccc3nc(SCC(=O)c3ccc(Cl)cc3)n2n1 | 2.48% |
| c1ccc2[nH]c(NC3=NCCC3)nc2c1 | 9.18% |
| Cc1[nH]c2ccccc2c(=O)c1CN(C)Cc1ccccc1 | -22.5% |
| CCCOc1ccc(C(=O)Nc2ccc3c(c2)OCO3)cc1 | 16.1% |
| COCCn1c(=O)[nH]c2cc(C(=O)Nc3cc(C)cc(C)c3)ccc2c1=O | 26.3% |
| Cc1c(Cl)cccc1S(=O)(=O)Nc1ccnn1C | 20.5% |
| CC1CCc2c(sc3ncnc(NCCN4CCOCC4)c23)C1 (centres unmarked) | -54.6% |
| O=C(CCNC(=O)c1ccccc1Cl)Nc1ccc(Br)c(C(F)(F)F)c1 | 22.5% |
| COc1ccc(C(=O)Nc2ccc(NC(C)=O)cc2)cc1S(=O)(=O)N(C)Cc1ccccc1 | 10.3% |
| Cc1cc(C)n(C(=O)CNC(=O)c2ccc(C(C)(C)C)cc2)n1 | 2.45% |
| CSc1oc(-c2ccco2)nc1S(=O)(=O)c1ccc(Br)cc1 | -6.38% |
| Cl.N[C@@H](Cc1c[nH]c2ccccc12)c1nnc(SCc2ccccc2F)o1 | -19.9% |
| O=c1c(Cc2ccc(F)cc2)c(O)ccn1CC1CCCO1 (centres unmarked) | 62.1% |
| COc1ccc(NC(=O)Cc2cccc3ccccc23)cc1 | 9.28% |
| Cc1ccnc2c(N3C(=O)C4C5c6ccccc6C(c6ccccc65)C4C3=O)cccc12 (centres unmarked) | -2.78% |
| O=S(=O)(c1ccccc1)c1nc(-c2ccco2)oc1NCCN1CCOCC1 | -32.2% |
| Cc1onc(-c2ccccc2Cl)c1-c1nc(-c2ccncc2)no1 | -10.9% |
| O=C(Nc1ccc(F)c(Cl)c1)N1CCCCCC1 | 6.06% |
| O=C(O)c1cccc(S(=O)(=O)N(Cc2ccccc2)c2ccccc2Cl)c1 | 13.8% |
| CN(C)C(=O)c1cn(-c2ccccc2)c(=O)c2ccccc12 | 16.1% |

| Structure (SMILES) | hERG current change (%, negative = inhibition) at 10uM |
| --- | --- |
| CCC(NC(=O)c1ccccc1NC(=O)c1ccc(C)cc1)C(=O)O (centres unmarked) | -3.27% |
| CCN(CC)S(=O)(=O)c1cc(NC(=O)CCCOc2ccc(C(C)=O)cc2)ccc1C | -29.9% |
| NC(=O)c1ccccc1NC(=O)CC1(CC(=O)O)CCCC1 | 11.7% |
| Cc1ccc(-c2nc(NCc3cccnc3)c3ccccc3n2)cc1 | 0.555% |
| COC(=O)c1c(NC(=O)COC(=O)CCNS(=O)(=O)c2ccccc2)sc(C)c1C | 14.7% |
| Nc1nc(SCC(=O)c2cccc([N+](=O)[O-])c2)n[nH]1 | -7.48% |
| C=C(C)CSc1cc(C)c(C#N)c2nc3ccccc3n12 | -31.5% |
| CCOC(=O)c1c(N)n(Cc2ccco2)c2nc3ccccc3nc12 | -61.9% |
| CC1CC2=C(NC(=S)NC2c2ccc(F)cc2)/C(=C/c2ccc(F)cc2)C1 (centres unmarked) | -3.78% |
| CC12CCC(C(=O)N3CCCCCC3)(OC1=O)C2(C)C (centres unmarked) | 13.1% |
| Cc1cccc(C)c1NC(=O)CNC(=O)CCNC(=O)c1ccco1 | 2.84% |
| CC(NC(=O)OCc1ccccc1)C(=O)NCC(=O)NC(Cc1ccc(OC(C)(C)C)cc1)C(=O)OC(C)(C)C (stereo not drawn) (Cbz-Ala-Gly-Tyr(tBu)-OtBu; configuration not given here) | -8.78% |
| O=C(CSc1nnc(CNC(=O)c2c(F)cccc2F)o1)NCc1ccccc1 | 9.56% |
| COC(=O)c1ccccc1NC(=O)Nc1nnc(N2CCCCC2C)s1 (centres unmarked) | 5% |
| CCOC(=O)CCC(NC(=O)c1ccc(NCN2C(=O)CCC2=O)cc1)C(=O)OCC (centres unmarked) | 7.22% |
| COc1cc(/C=C/c2ccc3cccc(O)c3n2)cc(OC)c1OC | 14.6% |
| Cc1cc[n+](Cc2ccc([N+](=O)[O-])cc2)cc1.[Br-] | -3.66% |
| Cc1cnc(C(=O)OCC(=O)c2ccc(F)cc2)cn1 | 8.42% |
| O=C(Cn1nnc2ccccc21)C1CC1 | 3.03% |
| O=C(c1c(F)cccc1Cl)N1CCN(c2ccccn2)CC1 | 4.41% |
| O=C(CCCCCN1C(=O)[C@@H]2Cc3ccccc3CN2C1=O)NCCc1ccccc1 | -35.7% |
| Cc1ccc(N(Cc2ccccc2)C(=O)c2ccc(F)c(S(=O)(=O)N3CCOCC3)c2)cc1 | -82.7% |

From PMC4336329 (PLoS ONE, 2015)
